This passage reports binding signal results from paper PMC9911399, “Two distinct binding modes provide the RNA-binding protein RbFox with extraordinary sequence specificity”.

Substitutions are numbered along the chain they refer to; changes in the protein carry UniProt numbers. This is one part of the list.

To fix the notation:
T1: RBFOX1 RRM RbFoxmut (Fox-RRM*) (Homo sapiens, UniProt Q9NWB1 109-208, R118D;E147R;N151S;E152T)
T1 sequence: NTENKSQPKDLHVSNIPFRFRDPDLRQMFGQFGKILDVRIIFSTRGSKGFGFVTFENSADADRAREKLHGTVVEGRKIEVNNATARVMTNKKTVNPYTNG

B1: CCUCGUG (DNA:RNA)
RNA: GGGAGACCGGAAUUCAGAUUGUCCCCUCGUGUUAAAUCCCGUCGUAGCCACCA
DNA 1: CAATCTGAATTCCGGTCTCCC
DNA 2: TGGTGGCTACGACGGGATT
B2: CCAUUAG (DNA:RNA)
RNA: B1 RNA with U27A, C28U, G29U, U30A
DNA 1: CAATCTGAATTCCGGTCTCCC
DNA 2: TGGTGGCTACGACGGGATT
B3: UCGACAA (DNA:RNA)
RNA: B1 RNA with C25U, U27G, C28A, G29C, U30A, G31A
DNA 1: CAATCTGAATTCCGGTCTCCC
DNA 2: TGGTGGCTACGACGGGATT
B4: UUGCUAG (DNA:RNA)
RNA: B1 RNA with C25U, C26U, U27G, G29U, U30A
DNA 1: CAATCTGAATTCCGGTCTCCC
DNA 2: TGGTGGCTACGACGGGATT
B5: GCAGGAC (DNA:RNA)
RNA: B1 RNA with C25G, U27A, C28G, U30A, G31C
DNA 1: CAATCTGAATTCCGGTCTCCC
DNA 2: TGGTGGCTACGACGGGATT
B6: CAACGGU (DNA:RNA)
RNA: B1 RNA with C26A, U27A, U30G, G31U
DNA 1: CAATCTGAATTCCGGTCTCCC
DNA 2: TGGTGGCTACGACGGGATT
B7: GCCGGGU (DNA:RNA)
RNA: B1 RNA with C25G, U27C, C28G, U30G, G31U
DNA 1: CAATCTGAATTCCGGTCTCCC
DNA 2: TGGTGGCTACGACGGGATT
B8: CCAGGAU (DNA:RNA)
RNA: B1 RNA with U27A, C28G, U30A, G31U
DNA 1: CAATCTGAATTCCGGTCTCCC
DNA 2: TGGTGGCTACGACGGGATT
B9: UCGGCAC (DNA:RNA)
RNA: B1 RNA with C25U, U27G, C28G, G29C, U30A, G31C
DNA 1: CAATCTGAATTCCGGTCTCCC
DNA 2: TGGTGGCTACGACGGGATT
B10: UUGUAAU (DNA:RNA)
RNA: GGGAGACCGGAAUUCAGAUUGUCCUUGUAAUUUAAAUCCCGUCGUAGCCACCA
DNA 1: CAATCTGAATTCCGGTCTCCC
DNA 2: TGGTGGCTACGACGGGATT
B11: CAUAGAG (DNA:RNA)
RNA: B1 RNA with C26A, C28A, U30A
DNA 1: CAATCTGAATTCCGGTCTCCC
DNA 2: TGGTGGCTACGACGGGATT
B12: CCCACGG (DNA:RNA)
RNA: B1 RNA with U27C, C28A, G29C, U30G
DNA 1: CAATCTGAATTCCGGTCTCCC
DNA 2: TGGTGGCTACGACGGGATT
B13: AUUACUG (DNA:RNA)
RNA: B1 RNA with C25A, C26U, C28A, G29C
DNA 1: CAATCTGAATTCCGGTCTCCC
DNA 2: TGGTGGCTACGACGGGATT
B14: CGUCGAG (DNA:RNA)
RNA: B1 RNA with C26G, U30A
DNA 1: CAATCTGAATTCCGGTCTCCC
DNA 2: TGGTGGCTACGACGGGATT
B15: CGAGCAC (DNA:RNA)
RNA: B1 RNA with C26G, U27A, C28G, G29C, U30A, G31C
DNA 1: CAATCTGAATTCCGGTCTCCC
DNA 2: TGGTGGCTACGACGGGATT
B16: GUGUGUC (DNA:RNA)
RNA: B10 RNA with U25G, A29G, A30U, U31C
DNA 1: CAATCTGAATTCCGGTCTCCC
DNA 2: TGGTGGCTACGACGGGATT
B17: CCAUCAU (DNA:RNA)
RNA: B10 RNA with U25C, U26C, G27A, A29C
DNA 1: CAATCTGAATTCCGGTCTCCC
DNA 2: TGGTGGCTACGACGGGATT
B18: CGACAUC (DNA:RNA)
RNA: B1 RNA with C26G, U27A, G29A, G31C
DNA 1: CAATCTGAATTCCGGTCTCCC
DNA 2: TGGTGGCTACGACGGGATT
B19: GUUGAUA (DNA:RNA)
RNA: B1 RNA with C25G, C26U, C28G, G29A, G31A
DNA 1: CAATCTGAATTCCGGTCTCCC
DNA 2: TGGTGGCTACGACGGGATT
B20: GUGCUGG (DNA:RNA)
RNA: B1 RNA with C25G, C26U, U27G, G29U, U30G
DNA 1: CAATCTGAATTCCGGTCTCCC
DNA 2: TGGTGGCTACGACGGGATT

This test deals with T1, RBFOX1 RRM RbFoxmut (Fox-RRM*). Kind of test: EMSA; HiTS-Eq, 1 nM pool, 10 min; buffer printed only for the single-RNA assays: 10 mM Tris pH 7.5, 150 mM NaCl, 3.4 mM EDTA, 0.001% NP-40, 30 C. The conditions noted are these: tags: His6 N-terminal (pET28a); label: 5' 32P. Put shortly:
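A pool of RNA with 7 randomized nucleotides, 5′-radiolabelled and with DNA-annealed flanks, was equilibrated at 1 nM for 10 min in 50 µL with purified RbFox RRM, wild type or mutant, across increasing protein concentrations. Free RNA was separated by 8% native PAGE, excised, reverse-transcribed, barcoded by PCR and sequenced. Relative association constants were obtained from read-count changes of each RNA species versus the control reaction and normalised to the cognate motif.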
In general terms: Mobility shift assays separate free from complexed probe on a gel.
In the case of B1, the binding signal is 0.118 KA relative to UGCAUGU. Then B2, with 0.124 KA relative to UGCAUGU. As for B3, the binding signal is 0.0417 KA relative to UGCAUGU. On to B4, for which the binding signal was 0.177 KA relative to UGCAUGU. In the case of B5, the binding signal is 0.0643 KA relative to UGCAUGU. In the case of B6, the binding signal is 0.0732 KA relative to UGCAUGU.

As for B7, the binding signal was 0.108 KA relative to UGCAUGU. As for B8, the binding signal was 0.0889 KA relative to UGCAUGU. B9: the binding signal was 0.0822 KA relative to UGCAUGU.

With B10, the binding signal is 0.104 KA relative to UGCAUGU.

As for B11, the binding signal is 0.125 KA relative to UGCAUGU. On to B12, for which the binding signal was 0.0992 KA relative to UGCAUGU. Turning to B13, the binding signal is 0.0992 KA relative to UGCAUGU. As to B14, the binding signal was 0.122 KA relative to UGCAUGU. As to B15, the binding signal is 0.0944 KA relative to UGCAUGU.

For the molecule B16, the binding signal was 0.329 KA relative to UGCAUGU. Turning to B17, the binding signal was 0.0963 KA relative to UGCAUGU. B18: the binding signal was 0.0318 KA relative to UGCAUGU. For the molecule B19, the binding signal was 0.158 KA relative to UGCAUGU. Consider B20, for which the binding signal is 0.119 KA relative to UGCAUGU.
